# Data published in PubChem BioAssay AID445 (National Center for Advancing Translational Sciences (NCATS), 2006).
# Several values for one entry are separate records, joined by “and”; a condition that tells them apart may be missing. Identical values can stand only once. Screen size: about 110,000 compounds; about 40 (0.04%) were called active. This list was built around the results that the source calls inconclusive (neither active nor inactive); the mix of calls is not that of the screen. Calls follow the shape of the dose curve; as a rule, active = well fitted curve in the direction sought with a large enough effect in the signal ratio (not every such curve was filed as active); inconclusive = small, poorly fitted or top-dose-only effect, or a change in a side signal; inactive = flat fitted curve, though single readings scatter; the % refers to the signal ratio. Potencies beside an inconclusive call are fits to weak or partial responses and may not hold up.
# Assay: IkB Signaling;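 as to IkBa stabilization activation: 0% = basal untreated cells and 100% = reference inhibitor full response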
# Settings: ABC-DLBCL IkBa-CBG/CBR dual luciferase ratio (green luciferase fused to IkBa over red control in OCI-Ly3 lymphoma cells), 4 h; IkBa stabilization activation: at 57.1 µM (top of the series), scaled: untreated 0%, proteasome inhibitor 100% unless noted
# Outline: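 In this assay, an IκBα–CBG68 fusion accumulates when IKK-driven degradation is blocked; native CBR normalizes for cell number. OCI-Ly3 cells were treated 4 h with compound and doxycycline, then green and red light read after Chroma-Glo addition.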
# Potency is read from the fitted curve at half-maximal effect.
SMILES,IkBa stabilization activation,Potency
Nc1c(C(=O)NCCN2CCOCC2)c2nc3ccccc3nc2n1Cc1ccco1,inactive: -2.62%,–
CCN(CC)C(=O)c1ccc(NC(=O)CCn2nc(-c3ccc(Cl)cc3)c3ccccc3c2=O)cc1,inconclusive: 0.515% [signal inhibitor],–
COc1ccc(P2(=O)Nc3ccccc3N2)cc1,inactive: -1.02%,–
Cc1cccc(C2CC(=O)Oc3c2c(=O)oc2ccccc32)c1 (stereo unspecified),–,inconclusive: 12.6 µM [signal inhibitor]
CCCCn1c(N)c(C(=O)OCC2CCCO2)c2nc3ccccc3nc21 (stereo unspecified),inactive: -0.286%,–
Cn1c(=O)cc(SCC(=O)N2CCC3(CC2)OCCO3)c2ccccc21,inactive: 3.23%,–
COc1cc(-c2ccc(N)c(OC)c2)ccc1N,inactive: -0.569%,–
C[C@@H]1O[C@H](O[C@H]2C[C@@H](O)[C@]3(CO)[C@H]4[C@H](O)C[C@]5(C)[C@@H](C6=CC(=O)OC6)CC[C@@]5(O)[C@H]4CC[C@]3(O)C2)[C@@H](O)[C@H](O)[C@H]1O,"inconclusive: 2.66% [signal inhibitor] [at 11.4 µM, scaled: untreated 0%, proteasome inhibitor 100%]",–
N=C(N)SCc1ccc(Cl)c2ccccc12 (tested in a mixture with another compound),"inactive: 1.8% [at 11.4 µM, scaled: untreated 0%, proteasome inhibitor 100%] and inactive: 8.7% [at 11.4 µM, scaled: untreated 0%, proteasome inhibitor 100%]",–
COc1cc2nc(CN3CC=C(c4ccccc4)CC3)[nH]c(=O)c2cc1OC,inconclusive: -0.583% [signal inhibitor],–
C[n+]1c(/C=C\c2ccc(O)c3ncccc23)[se]c2ccccc21,"inactive: 1.02% [at 11.4 µM, scaled: untreated 0%, proteasome inhibitor 100%]",–
C[C@H]1C(=O)O[C@H]2CCN3CC=C(COC(=O)[C@](C)(O)[C@@]1(C)O)[C@H]23,"inactive: 1.07% [at 11.4 µM, scaled: untreated 0%, proteasome inhibitor 100%]",–
Cc1o[nH]c(=O)c1C[C@H](N)C(=O)O,inactive,–
O=C1NC(=O)[C@]2(Cc3ccccc3N3CCN(c4ccccc4)CC32)C(=O)N1c1ccccc1 (stereo partly specified),–,"inconclusive: 2.51 µM [signal inhibitor, partial curve]"
CN1C[C@@H](CS(=O)(=O)N(C)C)C[C@H]2c3cccc4c3c(cn4C)C[C@@H]21,inactive: -2.37%,–
OCC(Br)CBr (stereo unspecified),inactive: -1.74%,–
Clc1nc(Cl)nc(Nc2ccccc2Cl)n1,inactive: -0.665%,–
O=S1OCC2C(CO1)C1(Cl)C(Cl)=C(Cl)C2(Cl)C1(Cl)Cl (stereo unspecified),inactive: 3.02%,–
COc1ccc(NC(=O)CN2C(=O)CN=C(c3ccccc3)c3ccccc32)c(OC)c1,inconclusive: -0.698% [signal inhibitor],–
CCCCOC(=O)C1=C(N)OC2=C(C(=O)CC(C)(C)C2)[C@]12C(=O)N(C)c1ccccc12,inactive: -1.57%,–

SMILES,IkBa stabilization activation,Potency
c1ccc(CCN2CCCCCC2)nc1,"inactive: -1.13% [at 11.4 µM, scaled: untreated 0%, proteasome inhibitor 100%]",–
COc1cc2c(cc1OC)[C@]13CCN4CC5=CCO[C@@H]6CC(=O)N2[C@@H]1[C@H]6[C@@H]5C[C@H]43,"inactive: -0.919% [at 11.4 µM, scaled: untreated 0%, proteasome inhibitor 100%]",–
C[C@@H]1CC[C@@]2(OC1)O[C@H]1[C@@H](O)[C@H]3[C@@H]4CC[C@H]5C[C@@H](O[C@@H]6O[C@H](CO)[C@H](O[C@@H]7O[C@H](CO)[C@@H](O)[C@H](O[C@@H]8OC[C@@H](O)[C@H](O)[C@H]8O)[C@H]7O[C@@H]7O[C@H](CO)[C@@H](O)[C@H](O[C@@H]8O[C@H](CO)[C@@H](O)[C@H](O)[C@H]8O)[C@H]7O)[C@H](O)[C@H]6O)[C@H](O)C[C@]5(C)[C@H]4CC[C@]3(C)[C@H]1[C@@H]2C,inconclusive: -4.62% [signal activator],–
c1ccc([C@H]2CNCc3ccccc32)cc1,inactive: 0.271%,–
COc1ccc(OC)c(CCNCc2c(C(=O)O)c(C)n(Cc3ccc(F)cc3Cl)c2C)c1,inconclusive: 0.32% [signal inhibitor],–
Clc1ccccc1-c1cncnc1NCCc1cnc[nH]1,"inactive: -1.2% [at 11.4 µM, scaled: untreated 0%, proteasome inhibitor 100%]",–
Cc1cc(OCC(=O)N2CCN(CCc3ccncc3)CC2)cc(C)c1Cl,inconclusive: 0.0635% [signal inhibitor],–
COc1ccc(NC(=O)CCc2nc(C3=CCN(Cc4cccc(C)c4)CC3)no2)c(OC)c1,inconclusive: -1.06% [signal inhibitor],–
Cc1ccc2c(c1N)C(=O)c1ccccc1C2=O,inactive: -7.84%,–
Cc1ccc2nc3c(cc2c1)CC1(C(=O)N(C)C(=O)N(C)C1=O)C1COCCN31 (stereo unspecified),inactive: 0.802%,–
N#CC(C#N)=Cc1cc(O)c(O)c(O)c1,inactive: 1.61%,–
CCNC(=O)[C@@H]1O[C@@H](n2cnc3c(N)ncnc32)[C@@H](O)[C@H]1O,inconclusive: 0.339% [signal activator],–
CCCCn1c(N)c(C(=O)NCCN2CCOCC2)c2nc3ccccc3nc21,inconclusive: -0.0681% [signal inhibitor],–
CC1=CC(=O)NP(=O)(Oc2ccc3ccccc3c2)N1 (stereo unspecified),–,"inconclusive: 31.6 µM [rising, single point]"
O=C(CCl)c1ccccc1,–,"inconclusive: 31.6 µM [rising, partial curve]"
COc1ccc(C2CC(=O)Oc3c2c(=O)oc2ccccc32)c(OC)c1OC (stereo unspecified),inconclusive: 12.3% [signal inhibitor],–
O=C(Oc1ccccc1)N1CCC2(CC1)CN(Cc1ccncc1)C2,"inactive: -1.94% [at 11.4 µM, scaled: untreated 0%, proteasome inhibitor 100%]",–
O=C1C2CC=CCC2C(=O)N1SC(Cl)(Cl)Cl (stereo unspecified),inconclusive: -8% [signal inhibitor],"inconclusive: 0.2 µM [signal inhibitor, full curve, poor fit]"
C[C@H]1CCCC(=O)CCCCCc2cc(O)cc(O)c2C(=O)O1,inconclusive: 2.08% [signal inhibitor],–
CN1C[C@@H](CNC(=O)OCc2ccccc2)C[C@H]2c3cccc4c3c(cn4C)C[C@@H]21,inactive: -6.75%,–

SMILES,IkBa stabilization activation,Potency
N[C@]1(C(=O)O)CC[C@@H](C(=O)O)C1,inactive: 0.286%,–
CN1CCN(C(=O)COc2ccc3ccccc3c2Br)CC1,inactive: -3.02%,–
CN(C)CS/C(N)=N/[C@H](O)C(Cl)(Cl)Cl,"inactive: 1.11% [at 11.4 µM, scaled: untreated 0%, proteasome inhibitor 100%]",–
FC(F)(F)c1ccc2c(c1)nnn2C1CCN(Cc2nnnn2Cc2ccccc2)CC1,inconclusive: 1.94% [signal inhibitor],–
CCCCCCCCCOc1ccc2[nH]cc(CCN)c2c1,inconclusive: 0.389% [signal inhibitor],–
Clc1ccc(COC(Cn2ccnc2)c2ccc(Cl)cc2Cl)cc1 (stereo unspecified),inconclusive: -8.31% [signal inhibitor],–
CN(C)C=C1C(=O)N(C2CCCCC2)C(=O)N(C2CCCCC2)C1=O,inconclusive: 3.85% [signal inhibitor],–
Cc1nn(Cc2ccccc2)c(C)c1C(=O)OCC(=O)Nc1ccccc1SCC#N,inconclusive: 11.7% [signal inhibitor],–
COc1ccc(C2=NCC(=O)N(CC(=O)NCc3ccco3)c3sc4c(c32)CCCC4)cc1,inconclusive: 10.9% [signal inhibitor],–
CCC(C)NC(=O)c1c(N)n(CCCOC)c2nc3ccccc3nc12 (stereo unspecified),inconclusive: 0.764% [signal inhibitor],–
CCOC(=O)c1c(N)n(Cc2ccco2)c2nc3ccccc3nc12,inconclusive: 13.8% [signal inhibitor],–
CC(=O)OC1=CC2=CC[C@H]3[C@H]4CCC(=O)[C@@]4(C)CC(=O)[C@]3(S)[C@]2(C)CC1,"inactive: 1.73% [at 11.4 µM, scaled: untreated 0%, proteasome inhibitor 100%]",–
Cc1nc(-c2ccc(-c3ccc(C(=O)N4CCc5cc6c(cc54)C4(CCN(C)CC4)CO6)cc3)c(C)c2)no1,inconclusive: 6.45% [signal inhibitor],"inconclusive: 31.6 µM [signal inhibitor, partial curve]"
O=C(O)C[C@H]1OCC=C2CN3CC[C@@]45C6=CC(=O)C(=O)C([N+](=O)[O-])=C6N[C@H]4[C@H]1[C@H]2C[C@@H]35,"inactive: 0.385% [at 11.4 µM, scaled: untreated 0%, proteasome inhibitor 100%]",–
COc1ccc(Cl)cc1NC1=NCC(C)S1 (stereo unspecified),inconclusive: -1.84% [signal inhibitor],–
NNc1c(C(N)=O)c2c(N)ncnc2n1[C@@H]1O[C@H](CO)[C@@H](O)[C@@H]1O,"inconclusive: 5.72% [signal inhibitor] [at 11.4 µM, scaled: untreated 0%, proteasome inhibitor 100%]",–
C=C[C@@H]1CN2CC[C@H]1C[C@H]2[C@@H](O)c1ccnc2ccccc12,"inactive: 2.4% [at 11.4 µM, scaled: untreated 0%, proteasome inhibitor 100%]",–
N[C@@H](Cc1cc(O)c(O)cc1O)C(=O)O,inactive: 1.31%,–
O=[N+]([O-])c1ccc(O[C@H]2O[C@@H](CO)[C@@H](O)[C@@H](O)[C@@H]2F)c([N+](=O)[O-])c1,inactive: -1.03%,–
